Screen size: about 48,000 compounds; about 1,200 (2.5%) were called active. Inconclusive results (about 2%) are left out.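 How the source made its calls: active means activation of at least 60% and not above a set upper limit (about 1 call in 100 departs from these limits); inconclusive means activation of 40% to 60%, or above that upper limit; inactive means activation under 40%.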 The list shows a part of the results.
molecular target: Probable G-protein coupled receptor 32 (Homo sapiens) (UniProt O75388); assay: qHTS for Agonists of Human Resolvin D1 Receptor DRV1; settings: CHO-K1 GPR32 beta-arrestin PathHunter luminescence, 90 min; at 76.9 µM; active compounds read high; zero percent set by DMSO-only wells; further: 0% is about no effect
In short: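 Using DMSO wells as EC0, agonist-induced signal was taken as chemiluminescence from beta-Gal reconstituted upon beta-arrestin recruitment to GPR32 in CHO-K1 cells after 90 min compound treatment.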

UniProt O75388, sequence (O75388 whole entry, looked up): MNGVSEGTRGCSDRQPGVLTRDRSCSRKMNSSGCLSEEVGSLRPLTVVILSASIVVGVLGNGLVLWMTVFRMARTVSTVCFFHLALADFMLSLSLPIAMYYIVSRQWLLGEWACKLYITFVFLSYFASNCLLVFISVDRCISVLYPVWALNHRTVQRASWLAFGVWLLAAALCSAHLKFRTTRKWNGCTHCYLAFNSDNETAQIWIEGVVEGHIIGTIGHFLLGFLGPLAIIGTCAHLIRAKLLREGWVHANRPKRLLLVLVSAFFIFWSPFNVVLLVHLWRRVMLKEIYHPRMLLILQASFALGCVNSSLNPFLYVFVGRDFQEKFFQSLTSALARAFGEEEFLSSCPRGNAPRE

activation, active:
O=c1cc(CSc2n[nH]c(-c3ccccc3)n2)[nH]c2ccccc12 93%
CCCCn1c(=N)n(CCCOc2ccc(F)cc2)c2ccccc21 76%

activation, inactive:
COc1cc(NC(=O)c2cc3c(=O)n(Cc4cccs4)ccc3nc2C)cc(OC)c1OC -12.8%
COc1ccccc1NC(=O)CSc1oc(-c2cccs2)nc1S(=O)(=O)c1ccccc1 -21.1%
CC(Sc1nc(=O)cc(N)n1CCc1ccccc1)C(=O)Nc1ccccc1C#N (stereo not given) 12.1%
O=C(CN1C(=O)COc2ccc(S(=O)(=O)N3CCOCC3)cc21)N1CCN(c2ccc(F)cc2)CC1 -1.74%
COc1ccc(OC)c(NC(=O)CN2C(=O)CCc3cc(S(=O)(=O)N4CCCCC4)ccc32)c1 -19.2%
O=C(NC1CCCCC1)c1ccc2c(c1)N(Cc1ccc(Cl)cc1)C(=O)c1ccccc1S2(=O)=O -18.5%
COc1ccc(Cn2ccnc2SCC(=O)Nc2nc3ccccc3s2)cc1 -17.7%
COc1cc2ncc3c(-c4ccc(C)cc4)nn(-c4ccc(F)cc4F)c3c2cc1OC -9.13%
CN(C)CCCNc1cc(N2CCN(C3CCCCC3)CC2)c2noc3c2c1C(=O)c1ccccc1-3 -4.71%
O=C(NCc1ccc2c(c1)CCN2C(=O)c1ccccc1)Nc1cccc(C(F)(F)F)c1 7.72%
Cc1ccccc1OCCSc1nc2ccc(NC(=O)c3cccc(F)c3)cc2s1 5.85%
Cc1ccc(NC(=O)CN2C(=O)c3cccnc3Oc3ccc(Cl)cc32)cc1 -13%
Cc1c(C(=O)NCc2ccccc2Cl)sc2ncnc(N(C)C3CCCCC3)c12 -4.36%
Cc1ccn2c(Nc3ccc4c(c3)OCCO4)c(-c3ccc(C)o3)nc2c1 -14%
Cc1cc(Nc2ccccc2C)n2nc(Cc3ccc(Cl)cc3)nc2n1 -28.7%
Cc1ccc(C(C)C)c(O)c1 -0.226%
CCOC(=O)c1c(C)n(-c2ccccc2)c2ccc(OC(=O)COc3ccc(Cl)cc3)cc12 -4.77%
Cc1ccccc1-c1nc(CN2CCC(C(=O)NCc3ccc(F)cc3)CC2)c(C)o1 15%
CC(=O)c1ccc(NC(=O)c2ccc3c(c2)N(Cc2cccc(Cl)c2)C(=O)c2ccccc2S3=O)cc1 (stereo not given) -14.6%
COc1ccc(NC(=O)c2cc3c(s2)-c2c(C)cccc2OC3)cc1Cl 9.43%
CCCN(CCC)c1ccc(C2N=C(N)Nc3nc4ccccc4n32)cc1 (stereo not given) -17.4%
CCOc1cc(C(=O)Nc2ccc(-c3cn4cccnc4n3)cc2)cc(OCC)c1OCC 11%
CCNC(=O)C1CCN(S(=O)(=O)c2ccc3c(c2)CCCN3C(C)=O)CC1 18.1%
Cn1c(=O)oc2cc(S(=O)(=O)CCC(=O)N3CCN(c4cccc(Cl)c4)CC3)ccc21 29.8%
O=C(NCc1ccccc1)c1ccc(NC(=O)N2CC3CCCN3c3ccccc32)cc1 (stereo not given) -26.5%
Cc1ccc(C)c(N2CCN(S(=O)(=O)c3cc(C(=O)Nc4ccc(Oc5ccccc5)cc4)ccc3F)CC2)c1 -6.96%
COc1ccc(Br)cc1CNC(=O)c1cnc2sc(N3CCC(C)CC3)nn2c1=O 3.3%
Cc1ccc(S(=O)(=O)c2nnn3c2nc(NCc2ccc4c(c2)OCO4)c2sccc23)cc1C -15.4%
CCCCNC(=O)CCCCCn1c(=O)[nH]c2ccccc2c1=O -9.44%
Cc1ccc2c(c1)c1c(c(=O)n(-c3ccccc3)c(=O)n1CC(=O)NCC1CCCO1)n2C (stereo not given) -10.6%
COc1cc(Cl)c(NC(=O)c2cc3ccccn3n2)c(OC)c1 22%
Cc1cccc(NC(=O)C2CCCN2S(=O)(=O)c2ccc3nc(-c4ccccc4)[nH]c3c2)c1 (stereo not given) 6.53%
Cc1nc2ccccn2c(=O)c1NC(=O)c1ccc(F)c(F)c1 -8%
COc1ccc(CCNC(=O)CN2C(=O)COc3ccc(S(=O)(=O)N4CCCC4)cc32)c(OC)c1 -19.8%
Cc1c(C(=O)NCc2cccc(Cl)c2)sc2nc3n(c(=O)c12)CCCC3 -1.03%
COc1ccc(-c2cnnn2-c2ccc(NC(=O)c3ccccc3OC)cc2)cc1 -22.3%
COc1ccc(C2=C(N3CCN(c4cccc(C)c4C)CC3)c3ccccc3C2=O)cc1 -3.22%
Cc1ccc(NC(=O)CC2Oc3ccccc3NC2=O)cc1C (stereo not given) -3.17%
CCN(CC)CCCNC(=O)c1ccc(Cn2c(SCc3ccccc3)nc3cccnc32)cc1 -7.24%
Cn1c(=O)n(Cc2c(F)cccc2Cl)c(=O)c2c1nc1n2CCN1c1ccc(F)cc1 4.8%
Cc1c(C(=O)NCc2cccc(Br)c2)oc2ccc3c(c12)C(=O)CC(C)(C)O3 -35.2%
COc1c(C)cccc1C(=O)Nc1ccc(-c2nc3ccccc3s2)c(Cl)c1 6.92%
Nc1nn(-c2ccccc2)nc1C(=O)OCc1ccc(Cl)cc1 -4.37%
COc1ccc(-c2nc3sc(CCNC(=O)C(=O)Nc4cccc(NC(C)=O)c4)c(C)n3n2)cc1 12.6%
CC1=C(C(=O)NCc2ccccc2F)C2(CCCCC2)OC1=O 2.9%
Cc1ccc(CCNC(=O)C2CCCN(c3nnc(C)c4c(C)n(-c5ccccc5)nc34)C2)cc1 (stereo not given) -14.5%
COc1ccc(-c2cn3nc(N4CCCC(C(=O)NCc5ccc(Cl)cc5)C4)sc3n2)cc1 (stereo not given) -2.97%
COCCNC(=O)c1nn(-c2ccc(C)cc2)c(=O)c2c1c1ccccc1n2C -0.543%
O=C(Nc1ccccc1Cl)N1CCC(CN2CCCC2)CC1 -16%
COc1cccc(-c2nc(CS(=O)(=O)CC(=O)NCc3cccc(Cl)c3)c(C)o2)c1 -10.6%
Cc1ccc(CSc2ncc(Cl)c(C(=O)Nc3nnc(C)s3)n2)cc1 26.6%
CC1=C(c2ccc(F)cc2)S(=O)(=O)N=C1N1CCC(C(=O)NCCc2cccc(C)c2)CC1 2.28%
COC(=O)c1c(C)oc2ccc(N(C(=O)c3ccncc3)S(=O)(=O)c3ccc(OC)cc3)cc12 22.9%
O=C(Nc1cccc(C(F)(F)F)c1)c1ccc2c(c1)nnn2C1CCCC1 36.6%
CCc1ccc(-n2c(=O)c3c4c(sc3n(Cc3ccccc3C#N)c2=O)CCC4)cc1 1.09%
COc1ccc(S(=O)(=O)NCCc2nnc3ccc(SCC(=O)Nc4ccccc4C)nn23)cc1 -9.02%
Cn1cc(CN(C(=O)Nc2ccccc2)C2CCCCC2)c2ccccc21 -44.2%
COc1ccc(-c2nc3sc(CCNC(=O)c4ccco4)c(C)n3n2)cc1 22.9%
CCS(=O)(=O)Nc1ccc(-c2cn3ccsc3n2)cc1 -2.6%
CN(C)c1ccc(CNS(=O)(=O)c2ccc(-c3cc(C(F)(F)F)on3)s2)cc1 -5.55%
COc1cc2c(cc1OC)CN(C(=O)Nc1ccccc1)CC2 -10%
CCCCn1c(=O)c2oc3ccccc3c2n(CC(=O)Nc2ccc(CC)cc2)c1=O -10.5%
CCn1cc2nc(SCc3cc(C)ccc3C)n(CCc3ccccc3)c(=O)c2n1 -3.74%
Cc1cccc(N2CCN(S(=O)(=O)c3c(C)nc4scc(C)n4c3=O)CC2)c1C -2.99%
COc1ccccc1NC(=O)c1ccc(COc2ccc(C)c(C)c2)o1 -8.82%
O=c1n(Cc2ccccc2Cl)c2ccccc2c2nc(-c3ccccc3)nn12 -6.14%
Cc1nn2c(=O)cc(COC(=O)c3ccc(NC(=O)COc4ccc(C)c(C)c4)cc3)nc2s1 19.5%
Cc1ncc(CO)c2c1Oc1nc(-c3ccccc3Cl)nc(SCc3ccccc3F)c1C2 12.6%
COCCCNC(=O)Cn1cnc2sc(C)c(S(=O)(=O)N3CCC(C)CC3)c2c1=O -2.51%
Cc1ccc(C)c(NC(=O)n2ncc3cc(Cl)ccc32)c1 -3.69%
COC(=O)C(C)Sc1ccc2nnc(CCNS(=O)(=O)c3ccc(C)cc3)n2n1 (stereo not given) -7.47%
CCOc1ccc(C2CC(=O)Nc3nc(SCc4ccccc4C)[nH]c(=O)c32)cc1OC (stereo not given) -17.4%
CC(C)NC(=O)c1ccc(Cn2c(SCC(N)=O)nc3ccccc3c2=O)cc1 -1.08%
COc1ccc(C2CC(=O)N3CN(C4CCCCC4)CSC3=C2C#N)c(OC)c1 (stereo not given) 40%
O=C(NCc1cccnc1)c1nn(-c2ccc(Cl)cc2)nc1CO -6.87%
COc1cc(Cl)c(C)cc1Nc1nc2ccccc2c2nnc(C)n12 -1.06%
COc1ccc2nc(N(Cc3cccnc3)C(C)=O)sc2c1 -14.5%
CCc1ccc(-n2c(=O)c3cccnc3n2CC(=O)NCc2ccccc2)cc1 -29%
COC(=O)c1ccc(NC(=O)CSc2ccc(-c3sc(-c4ccccc4)nc3C)nn2)cc1 -12.6%
CCC(Oc1ccccc1-c1nnc(-c2ccccc2)o1)C(=O)Nc1ccc(C(C)=O)cc1 (stereo not given) -3.74%
COC(=O)c1cc2oc(C)cc2n1Cc1ccc(Br)cc1F -31.7%
COc1ccc(Nc2ncc3c(n2)CCN(Cc2ccccc2C)C3)c(OC)c1 -2.81%
O=C(NC1CC(=O)N(c2ccc(F)cc2)C1)c1ccco1 (stereo not given) -3.77%

— PubChem BioAssay AID1346428 (National Center for Advancing Translational Sciences (NCATS), 2018)
